From paper PMC4336329 (PLoS ONE, 2015)
The campaign covered roughly 310,000 compounds. About 2,200 (0.71%) showed an effect of 50% or more. Effects have a minus sign here. The list shows a part of the results.

biological target: human ether-à-go-go-related gene (hERG) potassium channel (human, UniProt Q12809); test: primary screen, population patch clamp on CHO cells stably expressing hERG
Sequence (Q12809 whole entry, looked up): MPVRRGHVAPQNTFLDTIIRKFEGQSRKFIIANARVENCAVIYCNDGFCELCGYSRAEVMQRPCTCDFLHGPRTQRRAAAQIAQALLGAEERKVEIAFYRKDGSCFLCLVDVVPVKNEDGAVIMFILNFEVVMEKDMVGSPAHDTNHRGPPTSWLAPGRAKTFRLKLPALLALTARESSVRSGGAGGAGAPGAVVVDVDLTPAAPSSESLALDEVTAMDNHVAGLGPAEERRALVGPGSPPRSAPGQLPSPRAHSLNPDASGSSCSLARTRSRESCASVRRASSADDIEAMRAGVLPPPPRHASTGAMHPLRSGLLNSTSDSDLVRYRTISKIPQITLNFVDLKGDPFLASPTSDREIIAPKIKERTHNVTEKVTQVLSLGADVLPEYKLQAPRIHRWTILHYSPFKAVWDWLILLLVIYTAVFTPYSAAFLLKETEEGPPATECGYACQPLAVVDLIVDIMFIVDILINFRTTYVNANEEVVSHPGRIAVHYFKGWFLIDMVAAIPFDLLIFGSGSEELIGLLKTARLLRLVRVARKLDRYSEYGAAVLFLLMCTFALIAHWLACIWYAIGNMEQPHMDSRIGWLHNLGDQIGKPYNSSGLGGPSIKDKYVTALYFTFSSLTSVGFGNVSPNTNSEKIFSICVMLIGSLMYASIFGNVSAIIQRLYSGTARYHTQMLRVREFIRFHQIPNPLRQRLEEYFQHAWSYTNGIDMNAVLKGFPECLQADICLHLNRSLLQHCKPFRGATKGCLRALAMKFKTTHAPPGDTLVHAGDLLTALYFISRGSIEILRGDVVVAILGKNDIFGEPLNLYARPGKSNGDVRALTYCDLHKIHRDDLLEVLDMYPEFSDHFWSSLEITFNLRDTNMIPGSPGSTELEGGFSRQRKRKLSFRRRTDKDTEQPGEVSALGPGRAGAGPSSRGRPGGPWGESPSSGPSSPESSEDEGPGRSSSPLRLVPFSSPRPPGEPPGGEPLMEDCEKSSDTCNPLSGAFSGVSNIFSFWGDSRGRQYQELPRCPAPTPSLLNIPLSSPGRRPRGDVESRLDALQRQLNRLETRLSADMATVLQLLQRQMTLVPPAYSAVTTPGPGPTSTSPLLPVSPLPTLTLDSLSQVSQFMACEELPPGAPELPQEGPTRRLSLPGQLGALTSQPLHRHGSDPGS

Row | SMILES | hERG current change (%, negative = inhibition) at 1uM [%]
1 | Cc1cc(OCC(=O)NC2CCN(Cc3ccccc3)CC2)c2c(C)c(C)c(=O)oc2c1 | 7.38
2 | O=C(NCCCN1CCCC1=O)c1cc(S(=O)(=O)N2CCOCC2)ccc1Cl | 10.8
3 | CCOCCCN(C(=O)c1snc(C(N)=O)c1N)C(C(=O)NC(C)(C)C)c1ccc(Cl)cc1 (stereo not shown) | 3.97
4 | CC(C)c1ccc(/C=N/N2CCCCC2)cc1.O=C(O)C(=O)O | -17
5 | Cn1cc(/C=C/C(=O)N2CCCC(C(=O)c3cccc4ccccc34)C2)cn1 (stereo not shown) | 7.72
6 | O=C1c2ccccc2NC(c2ccccc2F)N1NS(=O)(=O)c1ccccc1 (stereo not shown) | 8.67
7 | O=C(NNC(=O)C(O)(c1ccccc1)c1ccccc1)C1CC1 | 14.2
8 | Cl.Nc1ccc(-c2nc3c(ccc4ccccc43)[nH]2)cc1 | 16.3
9 | COC(=O)/C=C1\SC(=NC(=O)c2ccc(OC)cc2)NC1=O | 7.43
10 | COc1ccc(N2CCN(C(=O)C3CCCN(S(=O)(=O)c4ccc(C)cc4)C3)CC2)cc1 (stereo not shown) | 2.69
11 | Cc1nc(-c2ccccc2)sc1-c1ccn[nH]1 | 20.5
12 | Cc1ccc(-n2nc3c(=O)n(CC(=O)NCc4ccccc4Cl)nc(C)c3c2C)cc1 | 16
13 | COc1ccc(-c2nnc(NC(=O)c3cccs3)s2)c(OC)c1 | 15.4
14 | CC(=O)Nc1ccc(S(=O)(=O)NCc2ccc(C(=O)N3CCOCC3)cc2)cc1 | 13.4
15 | N#CN/C(=N\S(=O)(=O)c1ccccc1)c1ccccc1 | 15.9
16 | Cc1ccc(/C=C/C(=O)N2CCN(S(=O)(=O)c3c(C)c(C)cc(C)c3C)CC2)o1 | 0.237
17 | COc1ccc(Br)cc1/C=N/Nc1ccc(Cl)c(C(=O)O)c1 | 8.36
18 | CSCC[C@H](NC(=O)C1CCN(S(=O)(=O)c2ccc(C)cc2)CC1)C(=O)NC1CCS(=O)(=O)C1 (stereo partly shown) | 5.8
19 | Cc1nc(CC(=O)c2ccc(O)c(C)c2O)cs1 | 2.96
20 | CCCCOC(=O)c1nnc(-c2ccccc2)o1 | 4.7
21 | Cc1cc(C)c(S(=O)(=O)N2CCCC2=O)cc1N(C)S(C)(=O)=O | 13.2
22 | Cc1ccc(S(=O)(=O)N2CCOC2CNC(=O)C(=O)NCc2ccncc2)cc1 (stereo not shown) | 7.58

Row | SMILES | hERG current change (%, negative = inhibition) at 1uM [%]
23 | CCOC(=O)C1=C(C)N(C)C(=O)NC1c1ccccc1OC (stereo not shown) | 3.54
24 | CC(C)C[C@H](CO)Nc1nc(Nc2cccc(Cl)c2)c2ncn(C(C)C)c2n1 | 13.6
25 | CCN(C(=O)COC(=O)CNC(=O)c1sc2ccccc2c1Cl)C1CCCCC1 | 27.9
26 | COc1ccccc1/C=C/C(=O)Nc1ccc(N2CCOCC2)cc1 | 19.2
27 | CC(=O)OC1COC(N2CCc3ccccc32)C(OC(C)=O)C1OC(C)=O (stereo not shown) | 14.1
28 | CCCCn1c(N)c(N(CCOC)C(=O)C2CCN(S(=O)(=O)c3ccc(C)cc3C)CC2)c(=O)[nH]c1=O | 14.6
29 | O=C(CCS(=O)(=O)c1ccc(Br)cc1)NCc1ccco1 | 12.1
30 | CCc1nnc(NC(=O)CSc2nccn2-c2ccccc2)s1 | -1.09
31 | CN1CCN(c2ccc([N+](=O)[O-])cc2Cl)CC1 | -3.54
32 | Cc1occc1C(=O)NC1CCCc2ccccc21 (stereo not shown) | 3.86
33 | O=C(Nc1ccc2c(c1)OCCO2)c1ccc(CN2CCOCC2)cc1 | 11.2
34 | CCc1nnc(N2C(=N)SCC2=O)s1 | 4.71
35 | CCCc1cc(C(=O)Nc2ccc(C(=O)c3ccc(F)cc3)cc2)n(C)n1 | 3.92
36 | C#CCNC(=O)C1=C[C@@H](C2CC2)[C@H](CCCO)[C@@H](OCC)O1 | 16.1
37 | Cc1ccc(S(=O)(=O)NCC23C=CC(O2)C2C(=O)N(c4ccccc4)C(=O)C23)cc1 (stereo not shown) | 4.09
38 | COc1cccc(CNC(=O)C(=O)NCC2CCCO2)c1 (stereo not shown) | -3.14
39 | CCOc1cccc2cc(-c3csc(NC(=O)CCC(=O)NCCCN4CCC(C)CC4)n3)c(=O)oc12 | -5.6
40 | O=C(Nc1ccc(Br)cc1)c1cc2ccccn2n1 | 6.87
41 | O=C1[C@H]2[C@@H](C(=O)N1c1cccc3ccccc13)C1(C(=O)c3ccccc3C1=O)N1CCC[C@@H]21 | -21.9
42 | CCCSc1cc(=O)n(-c2ccc(F)cc2)nc1C(=O)OCC | 11.4
43 | CN(CCCCCCCCCCN(C)C(=O)Oc1cccc([N+](C)(C)C)c1)C(=O)Oc1cccc([N+](C)(C)C)c1.[Br-] | 5.1
